# Measured values as given in PubChem BioAssay AID504832 (National Center for Advancing Translational Sciences (NCATS), 2011).
# About 18,000 (5.8%) of roughly 310,000 compounds were called active. Inconclusive results, whose numbers are uncertain, are shown with a selection of clear calls. Calls follow the shape of the dose curve; as a rule, active = well fitted inhibition curve with a large enough effect; inconclusive = small, poorly fitted or top-dose-only effect, or another doubt; inactive = no such curve, though single readings can be large or run the other way. No potency is given beside an inconclusive call; the fits are too rough.
# Assay: Primary qHTS for delayed death inhibitors of the malarial parasite plastid, 48 hour incubation
# Settings: P. falciparum luciferase growth in erythrocytes; series mostly up to 28.7 µM; activity change, negative = inhibition: at the top concentration
# In short: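 A one-generation exposure of luciferase-tagged malaria parasites in RPMI 1640/Albumax erythrocyte culture, 37 C and 5% CO2. Inhibition is inferred from decreased luminescence after adding detection reagent.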
# % is scaled to controls: 0 for no effect and ±100 for the full control effect; potency is read from the fitted curve at half-maximal effect; tags tell the direction and shape of the fitted curve.
SMILES,Potency,"activity change, negative = inhibition"
Cc1ccc(C2c3[nH]c4ccccc4c3C[C@H]3C(=O)N(c4ccccc4C(=O)NCCN4CCOCC4)C(=O)N23)cc1 (stereo not given in full),active: 14.7 µM,–
CC1CCN(S(=O)(=O)c2ccc3[nH]cc(C(=O)NCCN4CCOCC4)c(=O)c3c2)CC1,"inconclusive [inhibitor, single point]",–
CC(OC(=O)c1ccc([N+](=O)[O-])s1)C(=O)NC1CCCCC1C (stereo not given),active: 13.1 µM,–
CC(C)COc1cccc(C(=O)Nc2ccc(S(=O)(=O)N3CCOCC3)cc2)c1,"inconclusive [inhibitor, partial curve]",–
COc1ccc(CN(C)CC(=O)N(C)CC(=O)Nc2ccccc2Br)cc1F,"inconclusive [inhibitor, single point]",–
c1csc(-c2csc(-c3cccs3)n2)c1,–,inactive: 138%
CCN(CC1CCCN(CCc2cccc(F)c2)C1)C(=O)c1cc(C)oc1C (stereo not given),"inconclusive [inhibitor, partial curve]",–
O=S1(=O)CCN2C(c3cccc4ccccc34)=CSC2=N1,–,inactive: -12.1%
C=CCOC(=O)C1C(=O)CC(C)(O)C(C(=O)OCC=C)C1c1ccc(N(C)C)cc1 (stereo not given),–,inactive: -6.88%
COc1ccc2cc(C(=O)N3CCN(c4ccc(F)cc4)CC3)[nH]c2c1,–,inactive: -15%
COc1cccc(OC)c1C(=O)Nc1sc2c(c1C(N)=O)CCN(Cc1ccccc1)C2,"inconclusive [inhibitor, single point]",–
COc1cc2ccccc2cc1C(=O)N/N=C/c1ccc2c(c1)OCO2,–,inactive: 8.27%
CCOC(=O)c1sc(=S)n(-c2ccccc2Cl)c1SC,active: 13.1 µM,–
O=S(=O)(c1cccc2nsnc12)N1CCc2ccccc21,–,inactive: 89.2%
Cc1ccc(NC2CCCN(C(=O)c3cccs3)C2)cc1C (stereo not given),–,inactive: 6.71%
COc1ccc(CS(=O)/C(Cl)=C(/Cl)C(=O)Nc2ccc(OC)nc2)cc1 (stereo not given),active: 9.28 µM,–
O=C(Nc1nc(-c2ccccn2)cs1)c1ccco1,"inconclusive [inhibitor, partial curve, poor fit]",–
COc1ccc(NC(=S)NC(=O)c2ccc(Br)o2)cc1,–,inactive: 0%
Cc1cc(NC(=O)/C=C/c2ccccc2Cl)no1,"inconclusive [inhibitor, single point]",–
COCc1cc(C)nc(N/N=C/c2ccc(-c3cc(C(=O)O)ccc3Cl)o2)c1C#N,–,inactive: 7.77%
COC(=O)c1ccc(Nc2nc(N3CCOCC3)nc(N3CCOCC3)n2)cc1,"inconclusive [inhibitor, single point]",–
CC1CCc2ccc(F)cc2N1S(=O)(=O)c1cccs1 (stereo not given),"inconclusive [inhibitor, single point]",–
CCOC(=O)C1CCCN(C(=O)C2CCN(S(=O)(=O)c3ccc4ccccc4c3)CC2)C1 (stereo not given),–,inactive: 6.33%
CCCn1c2ccc(F)cc2c2nnc(SCCN3CCCCC3)nc21,"inconclusive [inhibitor, single point]",–

SMILES,Potency,"activity change, negative = inhibition"
Cc1nc2ccccc2n1CCOc1ccc(F)cc1,"inconclusive [inhibitor, single point]",–
N#C/C(=C\c1ccc(-c2ccccc2[N+](=O)[O-])o1)C(N)=O,"inconclusive [inhibitor, single point]",–
O=C(NCc1nc2ccccc2[nH]1)c1ccc(S(=O)(=O)N2CCCC2)cc1,"inconclusive [inhibitor, single point]",–
O=C(NNC(=O)c1cc2cc(Br)ccc2oc1=O)c1ccc(O)cc1,–,inactive: 4.63%
O=C1CCCC2=C1C(c1cn(-c3ccccc3)nc1-c1cccs1)c1c([nH]c(=O)[nH]c1=O)N2 (stereo not given),"inconclusive [inhibitor, single point]",–
O=C1CC(c2ccc(F)cc2)SC(N(c2ccccc2)c2ccccc2)=N1 (stereo not given),–,inactive: 13.4%
O=C(NC(CSCc1ccccc1)C(=O)N/N=C/c1ccc(O)cc1O)c1ccc([N+](=O)[O-])cc1 (stereo not given),"inconclusive [inhibitor, single point]",–
Cc1cc(CN2CCCC(C(=O)Nc3ccc(-c4nc5ccccc5[nH]4)cc3)C2)n[nH]1 (stereo not given),"inconclusive [inhibitor, full curve]",–
Cc1cccc(C(CC(=O)O)n2cccc2)c1 (stereo not given),–,inactive: 2.47%
Cc1ccc2nc3c(cc(C(=O)NC4CCCC4)c(=N)n3CCCn3ccnc3)c(=O)n2c1,"inconclusive [inhibitor, full curve]",–
CCNc1nc(NCC)n2c(SCc3nc4ccccc4c(=O)[nH]3)nnc2n1,"inconclusive [inhibitor, single point]",–
COc1ccc(-c2cc(C(=O)Nc3cc(C)on3)c3ccccc3n2)c(OC)c1,"inconclusive [inhibitor, single point]",–
Cc1ccc(-c2nn(-c3ccc(F)cc3)cc2C(=O)N2CCN(C3CCS(=O)(=O)C3)CC2)cc1 (stereo not given),"inconclusive [inhibitor, single point]",–
O=C(NCCC(=O)N(CCc1ccccc1)Cc1ccccc1)c1ccc(Br)cc1,"inconclusive [inhibitor, single point]",–
Cc1ccccc1C1c2[nH]c3ccccc3c2C[C@H]2C(=O)N(c3ccccc3C(=O)NCCCN3CCOCC3)C(=O)N12 (stereo not given in full),"inconclusive [inhibitor, partial curve]",–
Cc1ccc(S(=O)(=O)N2CCSC2)cc1C,–,inactive: -2.04%
CC(C)NC(NC(=O)/C=C/c1ccccc1)C(Cl)(Cl)Cl (stereo not given),–,inactive: 1.56%
CC(C)c1ccccc1OCC(=O)Nc1cc(S(=O)(=O)N2CCOCC2)ccc1N1CCCC1,active: 5.22 µM,–
CC(=O)c1c(C)[nH]c(C(=O)OCc2ccccc2)c1C,–,inactive: 128%
CCNc1nc(Oc2ccc(C(=O)OCC)cc2)nc(SC)n1,active: 11.7 µM,–
CC(C)CC(COCc1ccc(F)cc1)N1CCN(C(=O)c2cccc(C(F)(F)F)c2)CCC1=O (stereo not given),"inconclusive [inhibitor, single point]",–
COC(=O)C1CCN(C(=O)COC(=O)c2ccc3[nH]c4c(c3c2)CCCC4)CC1,"inconclusive [inhibitor, single point]",–
CCc1nnc(NC(=O)CN2CCN(c3ccccc3OC)CC2)s1,–,inactive: -18%
O=C(COc1ccc2c(c1)C(=O)CC1(CCCCC1)O2)NCc1ccccn1,"inconclusive [inhibitor, partial curve, poor fit]",–

SMILES,Potency,"activity change, negative = inhibition"
CCN(C(=O)c1ccc2c(Cl)c3c(nc2c1)CCC3)c1ccc(C)c(C)c1,"inconclusive [inhibitor, single point]",–
CN1C(=O)C(O)(CC(=O)/C=C\c2ccc3c(c2)OCO3)c2ccccc21 (stereo not given),"inconclusive [inhibitor, single point]",–
C/C(=N\O)c1oc2ccc3c(C)cc(=O)oc3c2c1C,–,inactive: 13.4%
CCC(C)(C)NC(=O)c1ccc2c(c1)N(CC(=O)N1CCCC1)C(=O)C(C)(C)O2,"inconclusive [inhibitor, full curve, poor fit]",–
C[C@H](NC(=O)c1nc[nH]c1C(=O)N[C@@H](Cc1ccccc1)C(=O)OC(C)(C)C)c1ccccc1,active: 3.29 µM,–
COc1ccc(OC)c(S(=O)(=O)NCC(c2cccs2)N2CCc3ccccc3C2)c1 (stereo not given),active: 14.7 µM,–
CCN(CCNC(=O)C1CCN(S(=O)(=O)CC)CC1)c1ccccc1,"inconclusive [inhibitor, single point]",–
O=C(Cc1c(Cl)cccc1Cl)N/N=C/c1cccnc1,–,inactive: -19.6%
O=C(Nc1ccc(Oc2ccccc2)cc1)C1CCN(c2c3c(nc4ncnn24)CCC3)CC1,"inconclusive [inhibitor, partial curve, poor fit]",–
COc1ccc(NC(=O)CN2C(=O)COc3ccc(S(=O)(=O)N4CCCCC4)cc32)c(OC)c1,"inconclusive [inhibitor, single point]",–
CCOC(=O)N1CCN(C(=S)Nc2ccc3nc(N4CCN(CC)CC4)cc(C)c3c2)CC1,"inconclusive [inhibitor, single point]",–
CCOc1ccc(CCNC(=O)c2nn(C)c3c2CS(=O)(=O)c2ccccc2-3)cc1OCC,"inconclusive [inhibitor, partial curve]",–
Cc1ccccc1NC(=S)NC(C)C(c1cccs1)N1CCOCC1 (stereo not given),"inconclusive [inhibitor, single point]",–
Cc1ccc(S(=O)(=O)NCCNc2ccc([N+](=O)[O-])cc2C(F)(F)F)cc1,active: 10.4 µM,–
COc1ccc2oc(=O)c(C(=O)NC3CCCCCC3)cc2c1,–,inactive: 31.2%
CN(CCC(=O)Nc1cc(S(=O)(=O)N(C)C)ccc1Cl)CC(=O)Nc1ccc(F)cc1,"inconclusive [inhibitor, partial curve, poor fit]",–
O=C(Nc1ccc(N2CCN(C(=O)c3ccccc3)CC2)c(Cl)c1)c1ncn[nH]1,active: 11.7 µM,–
Cc1cccc(C(=O)Nc2sc(C(=O)N3CCCC3)c(C)c2C#N)c1,"inconclusive [inhibitor, partial curve, poor fit]",–
C=CCN1CCN(C(c2cccc(OC)c2OC)c2nnnn2CCC(C)C)CC1 (stereo not given),active: 7.38 µM,–
Cc1ccccc1NC(=O)Cc1nc(COC(=O)c2ccc(S(C)(=O)=O)c([N+](=O)[O-])c2)cs1,"inconclusive [inhibitor, single point]",–
O=C(O)c1cc(=O)c2cc(Cl)ccc2o1,–,inactive: 34.2%
CC(=O)c1ccc(N2CCN(C(=O)CCS(=O)(=O)c3ccc(C)cc3)CC2)cc1,"inconclusive [inhibitor, single point]",–
